This note sets out measurements from publication PMC8144413.

Protein sequences, listed by entry. Tags and fused reporters are not part of them.
UniProt O94953: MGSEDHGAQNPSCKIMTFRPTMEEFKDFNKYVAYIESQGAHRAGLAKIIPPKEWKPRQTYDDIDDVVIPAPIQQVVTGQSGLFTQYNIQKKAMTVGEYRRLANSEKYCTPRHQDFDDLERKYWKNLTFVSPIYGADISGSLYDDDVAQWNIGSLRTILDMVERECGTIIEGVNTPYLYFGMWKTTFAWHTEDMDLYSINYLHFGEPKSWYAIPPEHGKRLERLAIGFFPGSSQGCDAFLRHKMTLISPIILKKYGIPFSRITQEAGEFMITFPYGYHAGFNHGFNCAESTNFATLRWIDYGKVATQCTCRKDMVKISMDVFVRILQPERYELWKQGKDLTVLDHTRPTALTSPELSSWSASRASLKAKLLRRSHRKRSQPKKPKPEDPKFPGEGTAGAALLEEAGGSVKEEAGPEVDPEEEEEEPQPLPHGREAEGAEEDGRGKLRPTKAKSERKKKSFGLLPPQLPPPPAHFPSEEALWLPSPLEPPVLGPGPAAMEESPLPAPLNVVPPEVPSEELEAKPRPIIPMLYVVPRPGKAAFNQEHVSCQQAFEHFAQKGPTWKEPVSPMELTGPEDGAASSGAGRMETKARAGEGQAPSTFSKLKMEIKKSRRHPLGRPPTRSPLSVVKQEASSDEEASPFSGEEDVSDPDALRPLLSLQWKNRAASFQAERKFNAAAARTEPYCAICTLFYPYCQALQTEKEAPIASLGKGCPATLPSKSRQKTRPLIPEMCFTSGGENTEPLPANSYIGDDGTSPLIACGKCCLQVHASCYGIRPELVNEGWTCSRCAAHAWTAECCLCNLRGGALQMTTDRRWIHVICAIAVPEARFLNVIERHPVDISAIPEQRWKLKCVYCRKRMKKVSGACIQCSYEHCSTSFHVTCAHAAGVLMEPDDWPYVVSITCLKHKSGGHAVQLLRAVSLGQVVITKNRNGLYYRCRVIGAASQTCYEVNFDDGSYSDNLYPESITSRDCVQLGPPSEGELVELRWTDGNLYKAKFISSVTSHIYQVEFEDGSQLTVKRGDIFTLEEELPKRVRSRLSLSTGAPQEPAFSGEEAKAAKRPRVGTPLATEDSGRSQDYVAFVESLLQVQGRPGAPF
UniProt Q04206: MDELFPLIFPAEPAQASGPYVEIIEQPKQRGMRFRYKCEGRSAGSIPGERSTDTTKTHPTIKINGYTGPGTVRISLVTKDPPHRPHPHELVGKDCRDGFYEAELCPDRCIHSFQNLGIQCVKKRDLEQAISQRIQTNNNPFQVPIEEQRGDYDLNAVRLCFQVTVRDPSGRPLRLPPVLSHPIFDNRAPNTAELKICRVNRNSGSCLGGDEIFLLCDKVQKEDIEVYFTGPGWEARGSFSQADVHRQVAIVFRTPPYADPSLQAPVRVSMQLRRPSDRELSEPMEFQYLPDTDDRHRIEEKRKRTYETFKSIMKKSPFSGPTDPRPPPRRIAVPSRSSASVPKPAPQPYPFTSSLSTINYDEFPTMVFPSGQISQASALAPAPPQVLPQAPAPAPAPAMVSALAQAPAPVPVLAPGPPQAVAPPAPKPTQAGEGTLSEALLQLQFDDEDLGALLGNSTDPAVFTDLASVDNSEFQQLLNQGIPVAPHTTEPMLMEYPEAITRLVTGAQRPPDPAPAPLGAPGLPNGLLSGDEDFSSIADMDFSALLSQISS
UniProt P01100: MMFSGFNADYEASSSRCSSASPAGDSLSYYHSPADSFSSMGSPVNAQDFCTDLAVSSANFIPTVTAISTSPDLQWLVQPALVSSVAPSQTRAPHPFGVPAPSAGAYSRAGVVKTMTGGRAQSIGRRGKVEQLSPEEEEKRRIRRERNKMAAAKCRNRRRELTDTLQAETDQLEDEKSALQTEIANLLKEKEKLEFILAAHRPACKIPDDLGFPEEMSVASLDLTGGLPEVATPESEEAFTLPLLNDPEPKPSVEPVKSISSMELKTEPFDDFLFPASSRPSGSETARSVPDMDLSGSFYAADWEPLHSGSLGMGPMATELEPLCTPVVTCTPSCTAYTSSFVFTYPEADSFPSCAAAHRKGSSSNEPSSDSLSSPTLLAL

Read-outs that look alike come from different tables or passages of the source. Results are given in words; binding and its absence hold for the method and conditions named. In cells and extracts the contact can be indirect. Some binding calls cover weakened binding; strength is not graded here. For part of these data: Where a sequence is shown, tags or fusion partners need not be part of it.

Assay [1] deals with FLAG-KDM4B WT (UniProt O94953). The assay is described as follows: co-IP; transfected cells (293T named in the methods); NP-40 lysis buffer (10 mM Tris pH 7.9, 150 mM NaCl, 1 mM EDTA, 5% glycerol); immunoprecipitation with anti-FLAG antibody, immunoblot with anti-HA antibody. Background: Immunoblotting shows a protein as a band on a membrane.
Assay [2] has as its target FLAG-KDM4B WT (UniProt O94953). The assay is described as above. This is another data set of the same source.
The target of assay [3] is T1, endogenous KDM4B (mouse bone marrow-derived macrophages) (mouse (endogenous in BMMs)) (UniProt Q91VY5).
T1 sequence: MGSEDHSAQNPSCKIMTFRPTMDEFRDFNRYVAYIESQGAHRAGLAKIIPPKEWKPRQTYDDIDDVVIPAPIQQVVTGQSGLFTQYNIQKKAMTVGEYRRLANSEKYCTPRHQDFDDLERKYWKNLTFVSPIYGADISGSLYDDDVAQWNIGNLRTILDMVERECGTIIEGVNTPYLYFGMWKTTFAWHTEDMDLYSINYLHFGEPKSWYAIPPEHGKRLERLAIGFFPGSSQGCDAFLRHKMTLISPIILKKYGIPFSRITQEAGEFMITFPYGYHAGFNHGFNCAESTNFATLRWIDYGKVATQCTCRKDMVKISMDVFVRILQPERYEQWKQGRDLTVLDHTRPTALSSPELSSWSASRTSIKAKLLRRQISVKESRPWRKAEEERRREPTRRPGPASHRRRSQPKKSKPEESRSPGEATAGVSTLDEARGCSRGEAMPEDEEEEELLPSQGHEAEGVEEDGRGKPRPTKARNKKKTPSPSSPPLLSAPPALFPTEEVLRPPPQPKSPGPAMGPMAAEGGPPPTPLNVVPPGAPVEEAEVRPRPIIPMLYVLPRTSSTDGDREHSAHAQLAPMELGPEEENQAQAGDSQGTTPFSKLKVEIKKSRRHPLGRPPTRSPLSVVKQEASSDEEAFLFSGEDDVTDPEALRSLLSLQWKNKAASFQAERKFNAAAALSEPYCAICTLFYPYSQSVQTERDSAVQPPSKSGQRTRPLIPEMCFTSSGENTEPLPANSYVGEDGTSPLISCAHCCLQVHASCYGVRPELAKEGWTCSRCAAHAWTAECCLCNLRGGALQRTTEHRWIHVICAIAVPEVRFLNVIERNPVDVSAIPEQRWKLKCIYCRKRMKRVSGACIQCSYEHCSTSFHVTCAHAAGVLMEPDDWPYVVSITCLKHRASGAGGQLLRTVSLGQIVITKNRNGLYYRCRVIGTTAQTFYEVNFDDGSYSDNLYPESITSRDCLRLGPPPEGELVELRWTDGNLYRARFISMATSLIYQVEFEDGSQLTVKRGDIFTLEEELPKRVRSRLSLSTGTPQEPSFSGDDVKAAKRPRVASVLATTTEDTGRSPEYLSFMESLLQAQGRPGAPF
The assay is described as follows: co-IP; endogenous proteins; BMMs stimulated with RANKL (100 ng/mL, 30 min); immunoprecipitation with anti-KDM4B antibody, immunoblot with anti-CCAR1 antibody.

Consider HA-p65 (from UniProt Q04206 1-551), for which, in the assay with FLAG-KDM4B WT [1], the binding result is recorded as “binds”. Same read-out and setting: the result for HA-c-Fos (from UniProt P01100 1-380) reads “no binding”.

B1: HA-CCAR1 (protein, UniProt Q8CH18 1-1146)
chain: MAQFGGQKNPPWATQFTATAVSQPAALGVQQPSLLGASPTIYTQQTALAAAGLTTQTPANYQLTQTAALQQQAAAVLQQQYSQPQQALYSVQQQLQQPQQTILTQPAVALPTSLSLSTPQPAAQITVSYPTPRSSQQQTQPQKQRVFTGVVTKLHDTFGFVDEDVFFQLGAVKGKTPQVGDRVLVEATYNPNMPFKWNAQRIQTLPNQNQSQTQPLLKTPTAVIQPIVPQTTFGVQAQPQPQSLLQAQISAASITPLLQTQPQPLLQQPQQKAGLLQPPVRIVSQPQPARRLDPPSRFSGRNDRGDQVPNRKDDRSRERDRERRRSRERSPQRKRSRERSPRRERERSPRRVRRVVPRYTVQFSKFSLDCPSCDMMELRRRYQNLYIPSDFFDAQFTWVDAFPLSRPFQLGNYCNFYVMHREVESLEKNMAVLDPPDADHLYSAKVMLMASPSMEDLYHKSCALAEDPQDLRDGFQHPARLVKFLVGMKGKDEAMAIGGHWSPSLDGPNPEKDPSVLIKTAIRCCKALTGIDLSVCTQWYRFAEIRYHRPEETHKGRTVPAHVETVVLFFPDVWHCLPTRSEWETLSRGYKQQLVEKLQGERKKADGEQDEEEKDDGEVKEIATPTHWSKLDPKAMKVNDLRKELESRALSSKGLKSQLIARLTKQLKIEEQKEEQKELEKSEKEEEDEDDKKSEDDKEEEERKRQEEVERQRQERRYILPDEPAIIVHPNWAAKSGKFDCSIMSLSVLLDYRLEDNKEHSFEVSLFAELFNEMLQRDFGVRIYKSLLSLPEKEDKKDKEKKSKKEERKDKKEEREDDIDEPKPKRRKSGDDKDKKEDRDERKKEEKRKDDSKDDDETEEDNNQDEYDPMEAEEAEDEDDDREEEEVKRDDKRDVSRYCKDRPAKDKEKEKPQMVTVNRDLLMAFVYFDQSHCGYLLEKDLEEILYTLGLHLSRAQVKKLLNKVVLRESCFYRKLTDTSKDDENHEESEALQEDMLGNRLLLPTPTIKQESKDGEENVGLIVYNGAMVDVGSLLQKLEKSEKVRAEVEQKLQLLEEKTDEDGKTILNLENSNKSLSGELREVKKDLGQLQENLEVSENMNLQFENQLNKTLRNLSTVMDDIHTVLKKDNVKSEDRDEKSKENGSGV
As to B1, the binding result with FLAG-KDM4B WT [2] was “binds”.

B2: endogenous CCAR1 (mouse bone marrow-derived macrophages) (protein, UniProt Q8CH18 1-1146)
chain: B1 chain
With B2, the binding result in assay [3] was “binds”.

B3: C-terminal region of CCAR1 (residues 661–1146), HA-tagged (domain or fragment, UniProt Q8CH18 661-1146)
chain: ARLTKQLKIEEQKEEQKELEKSEKEEEDEDDKKSEDDKEEEERKRQEEVERQRQERRYILPDEPAIIVHPNWAAKSGKFDCSIMSLSVLLDYRLEDNKEHSFEVSLFAELFNEMLQRDFGVRIYKSLLSLPEKEDKKDKEKKSKKEERKDKKEEREDDIDEPKPKRRKSGDDKDKKEDRDERKKEEKRKDDSKDDDETEEDNNQDEYDPMEAEEAEDEDDDREEEEVKRDDKRDVSRYCKDRPAKDKEKEKPQMVTVNRDLLMAFVYFDQSHCGYLLEKDLEEILYTLGLHLSRAQVKKLLNKVVLRESCFYRKLTDTSKDDENHEESEALQEDMLGNRLLLPTPTIKQESKDGEENVGLIVYNGAMVDVGSLLQKLEKSEKVRAEVEQKLQLLEEKTDEDGKTILNLENSNKSLSGELREVKKDLGQLQENLEVSENMNLQFENQLNKTLRNLSTVMDDIHTVLKKDNVKSEDRDEKSKENGSGV
Turning to B3, the binding entry in the assay with FLAG-KDM4B WT [2] is “binds”.

B4: HA-NFATc1 (protein, UniProt O95644 1-943)
chain: MPSTSFPVPSKFPLGPAAAVFGRGETLGPAPRAGGTMKSAEEEHYGYASSNVSPALPLPTAHSTLPAPCHNLQTSTPGIIPPADHPSGYGAALDGGPAGYFLSSGHTRPDGAPALESPRIEITSCLGLYHNNNQFFHDVEVEDVLPSSKRSPSTATLSLPSLEAYRDPSCLSPASSLSSRSCNSEASSYESNYSYPYASPQTSPWQSPCVSPKTTDPEEGFPRGLGACTLLGSPRHSPSTSPRASVTEESWLGARSSRPASPCNKRKYSLNGRQPPYSPHHSPTPSPHGSPRVSVTDDSWLGNTTQYTSSAIVAAINALTTDSSLDLGDGVPVKSRKTTLEQPPSVALKVEPVGEDLGSPPPPADFAPEDYSSFQHIRKGGFCDQYLAVPQHPYQWAKPKPLSPTSYMSPTLPALDWQLPSHSGPYELRIEVQPKSHHRAHYETEGSRGAVKASAGGHPIVQLHGYLENEPLMLQLFIGTADDRLLRPHAFYQVHRITGKTVSTTSHEAILSNTKVLEIPLLPENSMRAVIDCAGILKLRNSDIELRKGETDIGRKNTRVRLVFRVHVPQPSGRTLSLQVASNPIECSQRSAQELPLVEKQSTDSYPVVGGKKMVLSGHNFLQDSKVIFVEKAPDGHHVWEMEAKTDRDLCKPNSLVVEIPPFRNQRITSPVHVSFYVCNGKRKRSQYQRFTYLPANVPIIKTEPTDDYEPAPTCGPVSQGLSPLPRPYYSQQLAMPPDPSSCLVAGFPPCPQRSTLMPAAPGVSPKLHDLSPAAYTKGVASPGHCHLGLPQPAGEAPAVQDVPRPVATHPGSPGQPPPALLPQQVSAPPSSSCPPGLEHSLCPSSPSPPLPPATQEPTCLQPCSPACPPATGRPQHLPSTVRRDESPTAGPRLLPEVHEDGSPNLAPIPVTVKREPEELDQLYLDDVNEIIRNDLSSTSTHS
As for B4, the binding result with FLAG-KDM4B WT [2] is “no binding”.
